# Measurements from patent US20240307507A1, “LACTOFERRIN COMPOSITIONS AND METHODS OF USE” (LACTEA THERAPEUTICS LLC, priority 2021, published 2024).
# B1: API-E2: purified bovine lactoferrin from raw, untreated milk produced according to Example 1 (protein)
# chain: APRKNVRWCTISQPEWFKCRRWQWRMKKLGAPSITCVRRAFALECIRAIAEKKADAVTLDGGMVFEAGRDPYKLRPVAAEIYGTKESPQTHYYAVAVVKKGSNFQLDQLQGRKSCHTGLGRSAGWIIPMGILRPYLSWTESLEPLQGAVAKFFSASCVPCIDRQAYPNLCQLCKGEGENQCACSSREPYFGYSGAFKCLQDGAGDVAFVKETTVFENLPEKADRDQYELLCLNNSRAPVDAFKECHLAQVPSHAVVARSVDGKEDLIWKLLSKAQEKFGKNKSRSFQLFGSPPGQRDLLFKDSALGFLRIPSKVDSALYLGSRYLTTLKNLRETAEEVKARYTRVVWCAVGPEEQKKCQQWSQQSGQNVTCATASTTDDCIVLVLKGEADALNLDGGYIYTAGKCGLVPVLAENRKSSKHSSLDCVLRPTEGYLAVAVVKKANEGLTWNSLKDKKSCHTAVDRTAGWNIPMGLIVNQTGSCAFDEFFSQSCAPGADPKSRLCALCAGDDQGLDKCVPNSKEKYYGYTGAFRCLAEDVGDVAFVKNDTVWENTNGESTADWAKNLNREDFRLLCLDGTRKPVTEAQSCHLAVAPNHAVVSRSDRAAHVKQVLLHQQALFGKNGKNCPDKFCLFKSETKNLLFNDNTECLAKLGGRPTYEEYLGTEYVTAIANLKKCSTSPLLEACAFLTR
# Columns and labels:
# [1] = test system: Extra-Cellular Matrix (ECM) of Caco-2 cells; assay: Lactoferrin enrichment at the ECM by immunofluorescent imaging, Caco-2 cells; settings: varying concentrations, 37° C., two hours, IF imaging
# [2] = test system: salivary human bacteria (including Lactobacillus, Lactococcus, Streptococcus mutans, and Porphyromonas gingivalis); assay: Poultry surface treatment, chicken breasts inoculated with salivary bacteria; settings: 3 mg/mL surface treatment, 6 days at 37° C.
molecule,measurement,setting,value
B1,Lactoferrin enrichment at the ECM,[1],enrichment at the ECM was observed as concentration increased
same,bacterial growth on chicken breast,[2],no detectable growth
